The labels stand for the following.
B1: chr14:70725571:70725672:-|3pUTR|ENSG00000006432|unk|FALSE|unique (ssRNA)
RNA: GGGAGUUCUACAGUCCGACGAUCUAUUGUUAGAAACGCAUUACCAAAUGCAUCUCUUCUGUCGGAUCAGCGUAUUCCUAGAUUAGGAAUUCAAAUUAAUGAAAAUUCACAUAUGAAAGGAAAAUCCAUUGCUAUUUCUGGAGACAACAGAGGAUUGAGCAUCA
B2: chr6:37331633:37331734:+|3pUTR|ENSG00000065491|unk|total|mutant (ssRNA)
RNA: GGGAGUUCUACAGUCCGACGAUCCCGUUCCCCUUCUGCCCCAGUCUGAGCCAGUGAGGGGCCGCUUUUUAAAACCAUUAUUCCCGAUGGAGGAGGCACUGAUGCUUGUAACUCUGGAAAGAGGCCUACACCCAAGGGCCCGGACAACAGAGGAUUGAGCAUCA
B3: chr1:35190724:35191005:-|CDS|ENSG00000116560|unk|total|mutant (ssRNA)
RNA: GGGAGUUCUACAGUCCGACGAUCGCCCUUUCUGUUCGUAAUCUUUCACCUUAUGUUUCCAAUGAACUGUUGGAAGAAGCCUUCCGCCAAUUUGGUCCUAUUGAAAGGGCUGUUGUAACCGUGGAUGAUCGUGGAAGAUCUACACAACAGAGGAUUGAGCAUCA
B4: chr3:64018827:64018930:-|CDS|ENSG00000163636|unk|FALSE|unique (ssRNA)
RNA: GGGAGUUCUACAGUCCGACGAUCUGAACUCAUGGAUUAUAAAACAUUUGUGACUUAUACUGUCUAUGUCAGUAUGAUUGCCUUAGAAAGACCAGAUCUCAGGGAAAAGGUAAUGACCAAACUUUAAUACUCAAAUUUAAAGACCAACAGAGGAUUGAGCAUCA
B5: chr19:7926739:7926850:-|3pUTR|ENSG00000104980|unk|FALSE|unique (ssRNA)
RNA: GGGAGUUCUACAGUCCGACGAUCAGGGUGGGACCCGGGACCCGCGGCUCAGUGGCCCGCUAGCCACGUCAGCCAAGCCACUUUAGGUCCAUUUUUUAAUUUUAACAGUGCUCUUCCAUCUUGUGCAUAAGCCUGAGAUUUGGACAACAGAGGAUUGAGCAUCA
B6: chr11:69651696:69651723:+|3pUTR|ENSG00000110092|msi1_unk|FALSE|overlapping (ssRNA)
RNA: GGGAGUUCUACAGUCCGACGAUCGAGGAUUAGGUUCCAUCCUUUACGUGUUUAAAAAAAAGCAUAAAAACAUUUUAAAAACAUAGAAAAAUUCAGCAAACCAUUUUUAAAGUAGAAGAGGGUUUUAGGUAGAAAAACAUAUUCCAACAGAGGAUUGAGCAUCA
B7: chr6:43570573:43570674:-|CDS|ENSG00000124571|unk|FALSE|unique (ssRNA)
RNA: GGGAGUUCUACAGUCCGACGAUCGGUGUAGGAAACACAGACAGAAUUGGUGAUGUUUAUCCUUUUGCGACUGGCAGAGGAUGUAGUGACUUUUCAGACACUUCCCCCUCAAAGAAGAAGGGACAUCCAGCAAACAUUAACCCACAACAGAGGAUUGAGCAUCA
B8: chr14:88620753:88620926:-|CDS|ENSG00000165521|control|control|control (ssRNA)
RNA: GGGAGUUCUACAGUCCGACGAUCCAGCCCUGAAGGGGACAUGGUGGCUAUUGGAAUGAAAAAUGGAGAAUUUAUCAUUUUACUAGUGAGUUCUCUAAAAAUAUGGGGAAAGAAGAGAGACAGGAGAUGUGCAAUCCAUGAUAUCAACAGAGGAUUGAGCAUCA
B9: ENSG00000198589:be:win_301|CDS|ENSG00000198589|bound_else_gene|NA|bound_elsewhere_windowed (ssRNA)
RNA: GGGAGUUCUACAGUCCGACGAUCAAAUGUGACAUUACGUGCCAAGCAGAAGUCUGGAGCAUGUUUACAGCCAUUCUGAAGAAAAGCAUACGGAAUCUUCAAGUCUGCACUGAAGUAGGCCUUGUUGAAAAAGUGCUUGGGAAACAACAGAGGAUUGAGCAUCA
B10: chr13:109754583:109754684:-|3pUTR|ENSG00000185950|msi1|FALSE|unique (ssRNA)
RNA: GGGAGUUCUACAGUCCGACGAUCGAUCUCCCUGAACAUUUUUAAGGUUUUACUUUUCUGAAAUUAUACAUCACAGCAGUGCAUAGGCCAUAUAAUGUUAGCUGGAAGGUCAAUUUCAGUGUAUGAUAUACUUUAUUAAGAUGUCAACAGAGGAUUGAGCAUCA
B11: chr21:41885111:41889123:-|three_prime_utr|ENSG00000157617|control|control|control (ssRNA)
RNA: GGGAGUUCUACAGUCCGACGAUCCCAACUUGCCACCAGAUGCUAAAUGAGACUUGACAGCUGCAGAGCUUGGGCUGUGCUCAUAGCUAAGGGUUAGGGUUCAAUAUUAGAAGGAGAUUAACAUUAUAAGUGAAAUAAUAUGCUCAACAGAGGAUUGAGCAUCA
B12: chr4:169989555:169989656:-|3pUTR|ENSG00000198948|unk|FALSE|unique (ssRNA)
RNA: GGGAGUUCUACAGUCCGACGAUCUUGGACAACUCCCUUCCUCUCUCUGGGAUUUAAUCUUUUUCAUCUGUAAAAUAUGCAGGUAGUACUCGAGGGUCUACAGGAUCCCUUCUAGUUGAAACAUUUAUAGUUCACAGAAAGUUUCAACAGAGGAUUGAGCAUCA
B13: ENSG00000169762:stop:overlap|stop_codon|ENSG00000169762|stop_codon|NA|stop_codon (ssRNA)
RNA: GGGAGUUCUACAGUCCGACGAUCUCCUCACUUUGCCUUGCUAUGGCUUAAGACCGAAGGGAGGAGCACUUUCACUUCCUUUAUAGAAUGGAAUGUGGUGGCACAGGGACUCCUUGUGGGACAGACGUUUGCUUCAGCCUGCCCCAACAGAGGAUUGAGCAUCA
B14: chr7:139079551:139079652:-|CDS|ENSG00000105939|unk|FALSE|bound_elsewhere (ssRNA)
RNA: GGGAGUUCUACAGUCCGACGAUCAAUGCUGAUGGAGUGGCCACAGAUAUAACUUCUACCAGAUCCUUAAAUUACAAAAGCACUAGCAGCGGUCACAGAGAAAUAUCAUCACCUAGGAUUCAGGAUGCUGGACCUGCUUCCCGACAACAGAGGAUUGAGCAUCA
B15: chr7:16791810:16792950:-|three_prime_utr|ENSG00000106541|control|control|control (ssRNA)
RNA: GGGAGUUCUACAGUCCGACGAUCAGCCCUUCUGUCUGUCAGGCCUUGAGACUUGAAACCAGAAGAAGUGUGAGAAGACUGGCUAGUGUGGAAGCAUAGUGAACACACUGAUUAGGUUAUGGUUUAAUGUUACAACAACUAUUUCAACAGAGGAUUGAGCAUCA
B16: chr10:92030471:92030572:+|3pUTR|ENSG00000095564|unk|total|mutant (ssRNA)
RNA: GGGAGUUCUACAGUCCGACGAUCUAUUUUUUUAUUAACUAUUUAUUUGCCCGUUCCAUAAACCAGCUCUUUAACACCGCUUACCGUAAUUGAUAUUUUCUCCGAAUAAGUACAGAGCAAUAUAUCAUUAAAGGGCUAUGAAGGCAACAGAGGAUUGAGCAUCA
B17: chr7:137879121:137879144:-|3pUTR|ENSG00000182158|msi1_unk|FALSE|overlapping (ssRNA)
RNA: GGGAGUUCUACAGUCCGACGAUCUAAUCCCCAACCUACUUUUAGUUUUUUUGUUUUUUUUUUAUGGUUAAAAGUAACUUUUGUAGUUUAAAAAAAUCUUUCCUCUUUCAUAUAAAUAAGAAGUGGAAAUUGCCUUUUUAUUGUCAACAGAGGAUUGAGCAUCA
B18: ENSG00000176244:stop:overlap|stop_codon|ENSG00000176244|stop_codon|NA|stop_codon (ssRNA)
RNA: GGGAGUUCUACAGUCCGACGAUCAAGAUGCGACGAGUGCCUAUAUUUCUAAAGCAAAGGAGCUGAUAGAAAAAUACGGAAUUUAGAAUACAGCAUAUGAGGAAUUUUUCCUUUUGAAGACUUCCAAAUGCUAUCAUGACCUAACAACAGAGGAUUGAGCAUCA
B19: chr1:169376695:169376796:+|CDS|ENSG00000117475|unk|FALSE|unique (ssRNA)
RNA: GGGAGUUCUACAGUCCGACGAUCUCUUCAGCUAGGGAAAAUGCUCACUGAAAAAGCAAUGGAAGUUAAAGCUGUAAGAAUAUUAGUUCCCAAAGCUGCUAUAACUCAUGAUAUCCCCAACAAAAAUACAAAGGUUAAGUCUCUCAACAGAGGAUUGAGCAUCA
B20: chr3:113720845:113720875:-|3pUTR|ENSG00000121579|msi1_unk|FALSE|overlapping (ssRNA)
RNA: GGGAGUUCUACAGUCCGACGAUCCCUUUUUCUUCAGUAAACCCAACAAUAGUCUAACCUUAAAAAUUGAGUUGAUGUCCUUAUAGGUCACUACCCCUAAAUAAACCUGAAGCAGGUGUUUUCUCUUGGACAUACUAAAAAAUACAACAGAGGAUUGAGCAUCA
B21: chr2:150470103:150470218:-|CDS|ENSG00000115963|unk|FALSE|unique (ssRNA)
RNA: GGGAGUUCUACAGUCCGACGAUCAUGGCCAAACAGAUUGGAGCAGCUACUUAUAUCGAAUGCUCAGCUUUACAGUCGGAAAAUAGCGUCAGAGACAUUUUUCACGUUGCCACCUUGGCAUGUGUAAAUAAGACAAAUAAAAACCAACAGAGGAUUGAGCAUCA
B22: ENSG00000186472:stop:overlap|stop_codon|ENSG00000186472|stop_codon|NA|stop_codon (ssRNA)
RNA: GGGAGUUCUACAGUCCGACGAUCUUUCUUGUAAAUGGAAAUUUUAUCAUGUGUAUAGAUUCUGUAGCAUGCUUUUCUUUAUUUAGUUUUACUUUAUUCCUUUAUUGUUCUGUUUCUUGAUUGUUUGCUUGAUUUGUUUGGUGUCAACAGAGGAUUGAGCAUCA

Some of the results follow.

The target in this test is T1, UNK ZnF1-6 (called full-length) (human, UniProt Q9C0B0 30-357).
T1 sequence: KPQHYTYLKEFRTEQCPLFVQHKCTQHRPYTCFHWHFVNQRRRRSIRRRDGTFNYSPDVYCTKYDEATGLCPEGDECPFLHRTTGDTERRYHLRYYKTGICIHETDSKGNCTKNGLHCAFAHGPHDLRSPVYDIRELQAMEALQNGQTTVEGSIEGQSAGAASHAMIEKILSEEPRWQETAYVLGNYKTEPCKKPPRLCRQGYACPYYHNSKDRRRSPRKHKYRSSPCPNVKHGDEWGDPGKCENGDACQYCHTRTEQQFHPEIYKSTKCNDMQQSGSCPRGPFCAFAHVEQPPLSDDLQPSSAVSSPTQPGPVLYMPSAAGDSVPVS
The test is described as follows: nsRBNS (natural sequence RNA bind-n-seq); RBNS binding buffer (assumed for nsRBNS): 25 mM Tris pH 7.5, 150 mM KCl, 3 mM MgCl2, 0.01% Triton X-100, 500 ug/ml BSA, 20 U/ml SUPERase-In, 4 C; UNK is unkempt and MSI1 is Musashi-1; names of the RNAs are library labels; protein concentration not given here; high values mean tight binding.
In the case of B1, the binding signal turned out to be 2.56 enrichment R.

With B2, the binding signal was determined as 0.736 enrichment R.

Consider B3, for which the binding signal turned out to be 0.479 enrichment R.

Molecule B4 showed a binding signal of 0.48 enrichment R.

B5 had a binding signal of 3.77 enrichment R.

For B6, the binding signal stood at 13.5 enrichment R.

On to B7, for which the binding signal worked out at 0.529 enrichment R.

B8: the binding signal is 0.851 enrichment R.

The molecule B9 yielded a binding signal of 0.329 enrichment R.

On to B10, for which the binding signal was 0.723 enrichment R.

B11 displayed a binding signal of 2.63 enrichment R.

Regarding B12, the binding signal is 0.885 enrichment R.

Molecule B13 showed a binding signal of 0.472 enrichment R.

In turn, B14 gave a binding signal of 0.75 enrichment R.

B15 returned a binding signal of 0.789 enrichment R.

Consider B16, for which the binding signal amounted to 5.92 enrichment R.

B17 yielded a binding signal of 14.9 enrichment R.

In turn, B18 had a binding signal of 0.808 enrichment R.

Regarding B19, the binding signal was 0.304 enrichment R.

B20 came in with a binding signal of 2.86 enrichment R.

Molecule B21 registered a binding signal of 0.482 enrichment R.

B22 displayed a binding signal of 0.541 enrichment R.
